The source of these data is paper PMC7819943, “Rice protein-binding microarrays: a tool to detect cis-acting elements near promoter regions in rice”.

Some of the results follow.

This test concerns the target T1, OsWOX13 (Oryza sativa, UniProt Q5QMM3 1-267).
T1 sequence: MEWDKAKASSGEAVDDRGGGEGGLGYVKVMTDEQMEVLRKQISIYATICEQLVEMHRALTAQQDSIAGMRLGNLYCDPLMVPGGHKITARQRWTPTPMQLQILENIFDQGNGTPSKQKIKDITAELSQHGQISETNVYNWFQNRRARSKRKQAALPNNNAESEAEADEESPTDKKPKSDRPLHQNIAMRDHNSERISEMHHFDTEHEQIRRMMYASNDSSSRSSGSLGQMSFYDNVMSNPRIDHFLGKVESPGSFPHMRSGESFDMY
The test can be described thus: protein-binding microarray (RPBM); PBS, 2% BSA, 51.3 ng/ul salmon testes DNA, 50 uM zinc acetate, 200 nM TF, 25 C, 1 h; high values mean tight binding. The settings on record: protein: recombinant; tags: N-terminal polyhistidine and DsRed monomer fusion (pET32a); label: CyDye5-dUTP incorporated in the synthesized complementary strand; 3' TTTTT single-stranded linker to array surface; dsDNA, one strand shown. In short, it runs like this: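 The binding signal for each feature is its fluorescence intensity in arbitrary units. An Axon 4000B scanner was used to read a custom Agilent array that had been made double-stranded with Cy5-dUTP primer extension, blocked with 2% BSA, incubated at 25 °C for 1 h with 200 nM protein in PBS, 2% BSA, salmon testes DNA and 50 µM zinc acetate, and washed. The protein was an N-terminal polyhistidine–DsRed transcription factor fusion from E. coli BL21-CodonPlus, purified on Ni–NTA.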
For “TAAAATTACATATGTAATTTTAGGGACTTACAATGTAAATCGGAGTCACCTAGTGCAG”, the binding signal is 19900 fluorescence intensity (a.u.).
As to “TACAAATTTCAATTCCATATACATCAAAAGATTCGGCGCACGGAGTCACCTAGTGCAG”, the binding signal is 6080 fluorescence intensity (a.u.).
“ACTACCAATTAGTAGTAGCAAACGTACCATAGATGCATATCGGAGTCACCTAGTGCAG”: the binding signal is 6860 fluorescence intensity (a.u.).
“AAAGATTGAAACTCTGAACATTTAGGACAACGAACATCATCGGAGTCACCTAGTGCAG”: the binding signal was 14000 fluorescence intensity (a.u.).
“GTAAAATTGATGTTACTATATTTGTCATTAAACATAGTAGCGGAGTCACCTAGTGCAG”: the binding signal was 21000 fluorescence intensity (a.u.).
For “TTGTCCATCAATGGAGATGATGATGCCATGATCAAATGATCGGAGTCACCTAGTGCAG” the value was 5820 fluorescence intensity (a.u.); for “CGTAATTTTGAATTGTTAGATCTATTATAAGATTTGTTTTCGGAGTCACCTAGTGCAG”, 20800 fluorescence intensity (a.u.).
On to “ATATATTGTTTATTCAATTTATTTTCAAGAATATTCAGGACGGAGTCACCTAGTGCAG”, for which the binding signal was 5920 fluorescence intensity (a.u.).
Turning to “TTGTCTGTAAATCTATAATTGATACGGAGTACAAAGTGTTCGGAGTCACCTAGTGCAG”, the binding signal was 12100 fluorescence intensity (a.u.).
In the case of “GGATACTAATTTGGAGTATTAAACATACACTAATTACAAACGGAGTCACCTAGTGCAG”, the binding signal was 3820 fluorescence intensity (a.u.).
Turning to “ACAAATTTGGAATCATGGGCATTCCAGTAATTTCACACCTCGGAGTCACCTAGTGCAG”, the binding signal was 9450 fluorescence intensity (a.u.).
For the sequence “ACCCGAGCCCTGACTGCAATTTACTCCGACGTGACCACTGCGGAGTCACCTAGTGCAG”, the binding signal was 3800 fluorescence intensity (a.u.).
For the sequence “TCGTAAATTAGTCCAGAGTTTTGGAATAGGTTTTATCATTCGGAGTCACCTAGTGCAG”, the binding signal is 3640 fluorescence intensity (a.u.).
Turning to “CAATGATATGTCAATTAGATATGTCATGCTAGTTTCTTAGCGGAGTCACCTAGTGCAG”, the binding signal was 30100 fluorescence intensity (a.u.).
Under “AAATAACAATAAATTAATCTACTTTCACATATGAACAACACGGAGTCACCTAGTGCAG” stands 7040 fluorescence intensity (a.u.); under “TGCAAACTGCAATTTGAAGCAAATTAAAGATTGTGAAAGTCGGAGTCACCTAGTGCAG”, 14400 fluorescence intensity (a.u.); under “AGTCCAAATTACTACATATGTTCTTATATATCATGATGGTCGGAGTCACCTAGTGCAG”, 4600 fluorescence intensity (a.u.).
For the sequence “ATTCATCACGGCGAATTGACGGGCCACAATTTTAACAGTACGGAGTCACCTAGTGCAG”, the binding signal is 3800 fluorescence intensity (a.u.).
Take “CACCAATCAGGGTTCCAAGTAGAAGAGGTGGGCAGAGAGCCGGAGTCACCTAGTGCAG”: the binding signal was 6870 fluorescence intensity (a.u.).
Consider “GAATAATCAATTAAAAGGTTACATTAGTGTAAAGTATGACCGGAGTCACCTAGTGCAG”, for which the binding signal was 16400 fluorescence intensity (a.u.).
On to “ATTAACAGGATCTATATCACATGGAAAATATGAATACAGGCGGAGTCACCTAGTGCAG”, for which the binding signal is 5830 fluorescence intensity (a.u.).
For “ATATATATATATATATATATATATATCCTATTATTTCACTCGGAGTCACCTAGTGCAG” the value was 29900 fluorescence intensity (a.u.); for “TAGTCAACAATTATTGAATACTCCCATAGCGTACTAGTAGCGGAGTCACCTAGTGCAG”, 4000 fluorescence intensity (a.u.); for “AATGATTACAACCTACCTCTTCTCAGCGGGGTGTCCATTACGGAGTCACCTAGTGCAG”, 15200 fluorescence intensity (a.u.).
As for “AGCCTTCCATGATTATTTGAGAGATATTTAGACTATCATTCGGAGTCACCTAGTGCAG”, the binding signal is 4000 fluorescence intensity (a.u.).
Regarding “AGTACTAAATTAAATCATTTGTGGGAAGCTGGCGAGCCCGCGGAGTCACCTAGTGCAG”, the binding signal was 12800 fluorescence intensity (a.u.).
Take “GCACTCCATCCTATCCGATCCGATCCGTCCATCACAACATCGGAGTCACCTAGTGCAG”: the binding signal was 4020 fluorescence intensity (a.u.).
Turning to “CCTGATAATCCTGTCTAGATTGCTCCATCCTGGTGCTTGGCGGAGTCACCTAGTGCAG”, the binding signal is 10100 fluorescence intensity (a.u.).
For the sequence “TCTCAATCATTTATACTACACTAATTAACCAAGGTCATATCGGAGTCACCTAGTGCAG”, the binding signal is 27100 fluorescence intensity (a.u.).
Under “CATACCCATATAATTGACTTGTAGCATTTATAGTTTTGTACGGAGTCACCTAGTGCAG” stands 5530 fluorescence intensity (a.u.); under “TATATATATATATATATATATATCCAGCTAATCTCTCTCCCGGAGTCACCTAGTGCAG”, 23200 fluorescence intensity (a.u.).
Regarding “AGTCCTTTAATCTAAATAATTTTGGTCGGCGTTACTTTATCGGAGTCACCTAGTGCAG”, the binding signal is 4040 fluorescence intensity (a.u.).
In the case of “TGCTAATGAATCTAGACATATAATTAGCATCAATATAAATCGGAGTCACCTAGTGCAG”, the binding signal is 14200 fluorescence intensity (a.u.).
Take “AAAGACAAATTTAGATATAAACAGTACGCTACTATTCATACGGAGTCACCTAGTGCAG”: the binding signal is 3170 fluorescence intensity (a.u.).
“ATAATAAATCATAAAAGTTTGACTAAATCTTATCTTAATACGGAGTCACCTAGTGCAG”: the binding signal was 5610 fluorescence intensity (a.u.).
Turning to “TTTTGAATGATCTAATACTTTGGACATCAACATTTTGTTGCGGAGTCACCTAGTGCAG”, the binding signal was 3250 fluorescence intensity (a.u.).
As to “TGGTCTATAATTAACCTATCTGTAAAATCCATTGCCTTTTCGGAGTCACCTAGTGCAG”, the binding signal was 4400 fluorescence intensity (a.u.).
As to “AGTATTAAATTGTATATTTAATATACAGAGGTACTCCCTCCGGAGTCACCTAGTGCAG”, the binding signal is 12700 fluorescence intensity (a.u.).
For “TAAAATAAATTATTATTCAATTACATCTCTTCTCTCTTCTCGGAGTCACCTAGTGCAG” the value was 13400 fluorescence intensity (a.u.); for “CAACGGTCGATCAGCCGGTAATTGATCATATTTATCATTTCGGAGTCACCTAGTGCAG”, 5590 fluorescence intensity (a.u.); for “CACCAAAATTGGAAGTTTGGTTAAAATTGGAACGATGTGACGGAGTCACCTAGTGCAG”, 5550 fluorescence intensity (a.u.).
“TTGACTTGTACATAGTAATGATTGGCAGGTAATGACGTACCGGAGTCACCTAGTGCAG”: the binding signal is 24100 fluorescence intensity (a.u.).
In the case of “CGTGTGGTTGATTGTGTGTGCGAGCCGAATGCTGCCTACTCGGAGTCACCTAGTGCAG”, the binding signal was 5510 fluorescence intensity (a.u.).
For “ACTAAATTTAGTTAATACATAAGAAATCCTACCAAAATTTCGGAGTCACCTAGTGCAG”, the binding signal is 4390 fluorescence intensity (a.u.).
For the sequence “CGTCGCTCAATTGGTTGTCTCCTGTGTCATCCCGGATTATCGGAGTCACCTAGTGCAG”, the binding signal was 3840 fluorescence intensity (a.u.).
Turning to “AGATGATCTACTCTGTAAATTATCACGGTGAGCAGACAGGCGGAGTCACCTAGTGCAG”, the binding signal was 4940 fluorescence intensity (a.u.).
For the sequence “AAATCCCTGCTGATTGGAACGTTTTGACTAACTGTTTGGACGGAGTCACCTAGTGCAG”, the binding signal is 28800 fluorescence intensity (a.u.).
For the sequence “AACATTGATTATTAAATCGTTAAGGACACATCATATACAACGGAGTCACCTAGTGCAG”, the binding signal is 27600 fluorescence intensity (a.u.).
With “AGGTCATTTATCTATAACTAATTAACCGGTCACATCTACTCGGAGTCACCTAGTGCAG”, the binding signal was 12200 fluorescence intensity (a.u.).
Regarding “ATTAATTTAGATGTTGTATTCATCAACCATCTCGGTCATCCGGAGTCACCTAGTGCAG”, the binding signal is 16100 fluorescence intensity (a.u.).
On to “AAACAAATTACATATTCCACCTATAAACTGTGAGCTGAATCGGAGTCACCTAGTGCAG”, for which the binding signal is 7810 fluorescence intensity (a.u.).
Consider “ATTCACATATAGATTGGAAAACAAAGTAACATTTATAAAGCGGAGTCACCTAGTGCAG”, for which the binding signal is 3820 fluorescence intensity (a.u.).
Turning to “TAACTAACTCTACCTAATTAATAGATATATTGACATGTCACGGAGTCACCTAGTGCAG”, the binding signal is 18200 fluorescence intensity (a.u.).
For “CTATAATTATTTGTCGACTAAATCTGCCTTTCATCTTTCTCGGAGTCACCTAGTGCAG” the value was 21400 fluorescence intensity (a.u.).
